In PubChem BioAssay AID2147 (National Center for Advancing Translational Sciences (NCATS), 2009):
Out of some 230,000 compounds screened, about 3,600 (1.6%) were called active. The inconclusive results got no clear call from the source; some entries with a clear call stand among them for comparison. Calls come from the whole dose curve; as a rule, active = well fitted inhibition curve with a large enough effect (not every such curve was filed as active); inconclusive = small, poorly fitted or top-dose-only effect, or another doubt; inactive = no such curve, though single readings can be large or run the other way. Where the call is inconclusive, the potency comes from a doubtful curve fit.

target: Lysine-specific demethylase 4E (Homo sapiens) (UniProt B2RXH2); experiment: qHTS Assay for Inhibitors of Human Jumonji Domain Containing 2E (JMJD2E); conditions: JMJD2E catalytic domain, FDH-coupled NADH fluorescence (FDH is formaldehyde dehydrogenase); series mostly up to 57.1 µM; activity change, negative = inhibition: at the top concentration
Note: nearly all actives have a fitted effect of over 50% in size.
Potency is the fitted concentration of half-maximal effect; tags give direction and shape of the fitted curve.
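Throughout, for activity change, negative = inhibition: 0% = wells with enzyme and -100% = buffer wells without enzyme.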

Chain of UniProt B2RXH2 (B2RXH2 whole entry, looked up, the tested form may be a part): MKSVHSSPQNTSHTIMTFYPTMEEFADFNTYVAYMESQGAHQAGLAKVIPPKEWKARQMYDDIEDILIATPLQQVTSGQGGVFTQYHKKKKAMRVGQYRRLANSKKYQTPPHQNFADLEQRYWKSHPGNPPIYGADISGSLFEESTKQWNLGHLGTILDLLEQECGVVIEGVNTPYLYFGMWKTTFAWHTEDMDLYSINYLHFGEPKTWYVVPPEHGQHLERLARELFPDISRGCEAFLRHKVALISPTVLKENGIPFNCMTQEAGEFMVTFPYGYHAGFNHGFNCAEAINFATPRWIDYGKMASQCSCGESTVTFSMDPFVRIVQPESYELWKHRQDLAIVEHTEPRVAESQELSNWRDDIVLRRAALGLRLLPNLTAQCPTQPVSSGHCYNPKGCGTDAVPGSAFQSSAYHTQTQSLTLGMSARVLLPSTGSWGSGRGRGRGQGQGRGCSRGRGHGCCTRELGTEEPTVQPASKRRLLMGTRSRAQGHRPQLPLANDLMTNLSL

SMILES | Potency | activity change, negative = inhibition
C=CCOC(=O)C(C#N)c1nc2ccccc2nc1N1CCCC1 (centres undefined) | inconclusive: 39.8 µM [inhibitor, single point] | 
NC(=O)CSc1nc2scc(-c3ccc(Cl)cc3)c2c(=O)n1Cc1ccccc1 |  | inactive: -2.03%
CCN(CC)S(=O)(=O)c1ccc(NC(=S)NC(=O)CC(C)C)cc1 |  | inactive: 5.33%
CCCCSc1nc(SCC(=O)NCc2ccco2)c2c3c(sc2n1)COC(C)(CC)C3 (centres undefined) | inconclusive: 35.5 µM [inhibitor, single point] | 
COc1cc2c(cc1OC)C1C(=O)c3c(O)cc4c(c3OC1CO2)C=CC(C)(C)O4 (centres undefined) | inconclusive: 25.1 µM [inhibitor, single point] | 
COc1cc(C(=S)N2CCN(c3cccc(Cl)c3)CC2)ccc1O | inconclusive: 31.6 µM [inhibitor, single point] | 
O=C(Nc1ccc2c(c1)C(=O)OC2)Nc1cccc2ccccc12 | inconclusive: 28.2 µM [inhibitor, partial curve] | 
COCCNC(=O)C(=O)NNC(=O)COc1ccc(OC)cc1 |  | inactive: 11.5%
Nc1c(S(=O)(=O)c2ccccc2)c2nc3ccccc3nc2n1CCN1CCOCC1 | inconclusive: 28.2 µM [inhibitor, partial curve] | 
COc1ccccc1N1CCN(CCc2n[nH]c(=S)n2-c2ccccc2)CC1 | inconclusive: 35.5 µM [inhibitor, single point] | 
CCOC(=O)c1[nH]c2cc3c(cc2c1NC(=O)CN1CCCC1)OCO3 | inconclusive: 28.2 µM [inhibitor, partial curve] | 
CCCc1cc(NCC2CCCO2)n2c(nc3ccccc32)c1C#N (centres undefined) | inconclusive: 31.6 µM [inhibitor, partial curve] | 
CCCC/C(C)=N/NC(=O)c1cn(-c2ccccc2)nc1-c1ccccc1 |  | inactive: -23.7%
CCC1(C)Cc2sc3c(=O)[nH]c(=S)[nH]c3c2CO1 (centres undefined) |  | inactive: -18.9%
O=C(Nc1cccnc1)c1ccc(NS(=O)(=O)c2cc([N+](=O)[O-])ccc2Cl)cc1 |  | inactive: -7.33%
S=c1[nH]nc(C2CC2)n1Cc1ccccc1 |  | inactive: -3.94%
Cc1ccc(-n2c(C)c3c(C)nnc(C)c3c2C)cc1 | inconclusive: 28.2 µM [inhibitor, single point] | 
O=C(Nc1cccc(C(=O)N2CCCC2)c1)c1ccccc1Cl |  | inactive: 4.63%
CCOc1ccc(/C=C2\SC(=S)N(NS(=O)(=O)c3ccc(C)cc3)C2=O)cc1OC |  | inactive: -2.98%
Cc1ccc(NC(=S)NCC(C)C)cc1 |  | inactive: 2.57%
O=C(CN1CCc2ccccc2C1)NCc1ccco1 | inconclusive: 39.8 µM [inhibitor, single point] | 
COc1ccc(O)c(C(=O)/C=C/c2cc3ccccc3o2)c1 |  | inactive: -11.2%
Brc1ccc(-c2csc(Nc3nc(-c4ccc(Br)cc4)cs3)n2)cc1 |  | inactive: -9.75%
COc1ccc(N2CCN(c3cc(C)c4ccc(C)cc4n3)CC2)cc1 | inconclusive: 35.5 µM [inhibitor, single point] | 
CCSc1nc2[nH]ncc2c(=O)[nH]1 |  | inactive: 1.11%
Cn1c(Cl)cnc1C(O)(c1ccccc1)c1ccccc1 |  | inactive: -11.6%
CN(c1ccc(C(=O)NCc2ccco2)cc1)S(C)(=O)=O |  | inactive: 5.46%

SMILES | Potency | activity change, negative = inhibition
O=C(c1cc2nc(-c3ccco3)cc(C(F)(F)F)n2n1)N1CCN(c2ccccn2)CC1 | inconclusive: 28.2 µM [inhibitor, single point] | 
Cc1[nH]c2ccccc2c1C(=O)CCl |  | inactive: 2.84%
COc1cc(C2C(C#N)=C(N)Oc3cc(N(C)C)ccc32)cc2c1OCO2 (centres undefined) |  | inactive: -6.9%
COC(=O)C(C)Sc1nc2c(c(=O)[nH]c(=O)n2C)n1CCC(C)C (centres undefined) |  | inactive: -4.7%
NC(=O)c1cc2ccncc2c2ccccc12 | inconclusive: 35.5 µM [inhibitor, single point] | 
COC(=O)c1cc(=O)n2c(sc3ccccc32)c1C#N | inconclusive: 15.8 µM [inhibitor, partial curve] | 
O=C(COC(=O)c1oc2ccccc2c1CSc1ccc(Cl)cc1)NC1CCCC1 |  | inactive: 0.751%
O=C1C2CC=CCC2C(=O)N1c1ccc(NCCc2ccc(Cl)cc2)c([N+](=O)[O-])c1 (centres undefined) |  | inactive: -4.19%
CC(=C/c1ccccc1)/C=N/NC(=O)c1cnccn1 |  | inactive: -5.96%
O=C(CSc1nc2ccccc2c(=O)[nH]1)Nc1ccc(S(=O)(=O)N2CCCC2)cc1 |  | inactive: -3.69%
S=C(Nc1ccc(Nc2ccccc2)cc1)N1CCN(c2ncccn2)CC1 |  | inactive: 3.06%
CCOC(=O)c1c(C)n(OCc2ccccc2)c2ccc3nonc3c12 | inconclusive: 28.2 µM [inhibitor, partial curve] | 
CC(OC(=O)CCc1nc2ccccc2[nH]c1=O)C(=O)c1ccccc1 (centres undefined) | inconclusive: 35.5 µM [inhibitor, single point] | 
COc1ccc(-c2nc3c4ccccc4ccn3c2CN2CCCCC2)cc1 | inconclusive: 31.6 µM [inhibitor, single point] | 
CCn1c(SCC(=O)N2CCN(c3ccc(Cl)cc3)CC2)nc2ccccc2c1=O |  | inactive: -0.0496%
CCCCOC(=O)/C(=C/C=C/c1ccccc1)NC(=O)c1ccccc1 | inconclusive: 39.8 µM [inhibitor, single point] | 
C=CCn1c(C)cc(C)c(C#N)c1=O | inconclusive: 15.8 µM [inhibitor, partial curve] | 
CCN(CC)C(=O)CSc1nc2cc3c(cc2c(=O)n1CCCCCC(=O)NCc1ccc(OC)cc1)OCO3 |  | inactive: 1.14%
O=c1[nH]c2cc3c(cc2cc1CN(Cc1nnnn1CC1CCCO1)C1CCCC1)OCO3 (centres undefined) | inconclusive: 14.1 µM [inhibitor, partial curve] | 
CC(=O)Oc1cc(C(F)(F)F)ccc1C(=O)O | inconclusive: 15.8 µM [inhibitor, partial curve] | 
COc1ccc(-c2c(C#N)c(N)nc3c2CCc2ccccc2-3)cc1OC | inconclusive: 31.6 µM [inhibitor, partial curve] | 
N#CCCn1cc(/C=C2\NC(=S)N(c3ccccc3)C2=O)c(-c2ccc(F)cc2)n1 |  | inactive: -15.5%
COC(=O)c1cccc(OCC(O)Cn2ccnc2)c1 (centres undefined) | inconclusive: 39.8 µM [inhibitor, single point] | 
COc1ccc(-c2nc3n(c(=O)c2C#N)CCS3)cc1OC | inconclusive: 35.5 µM [inhibitor, partial curve] | 
O=c1[nH][nH]c(=S)n1C1CCCCC1 | active: 2.82 µM | 
CCOc1cc(C(=S)N2CCCCC2)ccc1OS(=O)(=O)c1ccc(Cl)cc1 |  | inactive: 11.7%
Cc1ccc2c(c1)COc1c3ccc(C(=O)N4CCOCC4)cc3nn1-2 | inconclusive: 35.5 µM [inhibitor, partial curve] | 

SMILES | Potency | activity change, negative = inhibition
CC1=C(C(=O)Nc2cccc(F)c2)C(c2ccsc2)C2=C(CC(C)(C)CC2=O)N1 (centres undefined) | inconclusive: 22.4 µM [inhibitor, partial curve] | 
CSCC(=O)N1CCCC(CO)(Cc2ccccc2C)C1 (centres undefined) | inconclusive: 39.8 µM [inhibitor, single point] | 
Cc1ccc2nc(-c3ccccc3N)[nH]c2c1 | inconclusive: 10 µM [inhibitor, partial curve] | 
COCCNC(=O)/C(C#N)=C/c1ccc(N2CCOCC2)o1 | inconclusive: 39.8 µM [inhibitor, single point] | 
N#Cc1c(NC(=O)Cn2c(=O)oc3ccccc32)oc(-c2ccccc2)c1-c1ccccc1 | inconclusive: 3.16 µM [inhibitor, single point] | 
COc1cc(CN2C(=S)NC(C)(C)CC2(C)O)cc(OC)c1 (centres undefined) |  | inactive: -11.6%
O=c1oc2ccccc2cc1-c1cn2cccnc2n1 | inconclusive: 31.6 µM [inhibitor, partial curve] | 
N=C1C=CC=C2C1=NC1(CCCCC1)N2O | inconclusive: 25.1 µM [inhibitor, single point] | 
COc1ccccc1CNC(=O)C1CCC(CNc2c(N3CCCCC3)c(=O)c2=O)CC1 (centres undefined) |  | inactive: 6.45%
CC(Cl)C(=O)NN=C(c1ccccc1)c1ccccc1 (centres undefined) |  | inactive: -14%
CC(C)(C)N/N=C/c1c(O)n(-c2ccc(Cl)cn2)c(=O)c2ccccc12 | inconclusive: 8.91 µM [inhibitor, partial curve] | 
COc1cccc(/C=N/NC(=O)C(C)n2nnc3ccccc32)c1 (centres undefined) |  | inactive: -9.53%
Clc1nc2ccccc2nc1-c1ccccc1 | inconclusive: 39.8 µM [inhibitor, single point] | 
CCc1ccc2c(c1)C(NC(C)=O)C(=O)N2CC (centres undefined) | inconclusive: 3.55 µM [inhibitor, single point] | 
O=C(CC(c1ccco1)S(=O)(=O)c1ccccc1)c1ccc(F)cc1 (centres undefined) | inconclusive: 39.8 µM [inhibitor, single point] | 
COc1cc2c(-c3ccccc3O)nc3c(c(C)nn3-c3ccccc3)c2cc1OC | inconclusive: 35.5 µM [inhibitor, single point] | 
C=CCn1c(C)cc(C(=O)Cn2nc(C(=O)O)c3ccccc3c2=O)c1C | inconclusive: 35.5 µM [inhibitor, single point] | 
COc1ccc(CCNC(=O)CN2CCCc3ccccc32)cc1OC |  | inactive: -1.3%
O=C(CCCC(=O)OCC(=O)c1cccs1)Nc1ccc(Oc2ccccc2)cc1 |  | inactive: 3.24%
COC(=O)c1cc2c(s1)-c1ccccc1OC2 | inconclusive: 31.6 µM [inhibitor, partial curve] | 
COc1cc(OC)c(C(=O)NCC(c2cccs2)N(C)C)cc1OC (centres undefined) | inconclusive: 39.8 µM [inhibitor, single point] | 
CC1CCCN(C(C(=O)NC2CCCCC2)c2cc3c(cc2[N+](=O)[O-])OCO3)C1 (centres undefined) |  | inactive: 3.07%
COC(=O)CNC(=O)CNC(=O)Nc1ccccc1Cl |  | inactive: 8.91%
CCCCCC[N+](C)(C)CCSSCC[N+](C)(C)CCCCCC |  | inactive: -11.8%
O=[N+]([O-])c1ccc(Nc2c3ccccc3nc3ccccc23)cc1 | inconclusive: 25.1 µM [inhibitor, single point] | 
